The values below come from patent US10487153B2, “Carbonic anhydrase IX-specific antibodies and uses thereof” (National Research Council of Canada, priority 2015, dated 2019).

One data set concerns the target rhCA-IX ECD Dimer (Homo sapiens, UniProt Q16790). As to conditions: recombinantly expressed Abs. On the procedure:
The change in response due to binding was measured during this antigen injection phase followed by injection of running buffer to measure dissociation of the complex formed. Firstly, one buffer injection for 30 s at 100 μL/min in the ligand direction was used to stabilize the baseline. For each antibody variant capture, non-purified variants in cell-culture media were diluted to 4% in PBST. One to five variants or controls were simultaneously injected in individual ligand channels for 240 s at flow 25 μL/min. […] The first ligand channel was left empty to use as a blank control if required. This capture step was immediately followed by two buffer injections in the analyte direction to stabilize the baseline.
Sensorgrams were aligned and double-referenced using the buffer blank injection and interspots, and the resulting sensorgrams were analyzed using ProteOn Manager software v3.1. The double-referenced sensorgrams were fit to the 1:1 binding model to determine the rate constants for association and dissociation (ka and kd) and the corresponding affinity (KD).

The target in a further data set is T1, rhCA-XII (Homo sapiens, UniProt O43570).
T1 construct: purchased Sino Biologics Inc
The experiment in a line: Cross-reactivity determination by SPR. It is filed as binding. As to conditions: 100 nM analyte. On the procedure:
(§1) CA proteins for the analyte injection were purchased from Sino Biologics Inc.; the proteins were reconstituted as recommended by the manufacturer and diluted to 100 nM in SPR running buffer for binding analysis.
A general note: Surface plasmon resonance follows binding to a sensor surface in real time, without labels.

A further data set concerns the target T2, rhCA-XIV (Homo sapiens, UniProt Q9ULX7).
T2 construct: purchased Sino Biologics Inc
The experiment in a line: Cross-reactivity determination by SPR. Type of data set: binding. As to conditions: 100 nM analyte. On the procedure: as §1

In a further data set the target is T3, rhCA-IV (Homo sapiens, UniProt P22748).
T3 construct: purchased Sino Biologics Inc
Briefly: Cross-reactivity determination by SPR. It is filed as binding. As to conditions: 100 nM analyte. On the procedure: as §1

The target in data set [1] is dimeric CA-IX extracellular domain (ECD) from dog. The experiment in a line: CA-IX species binding by SPR. As to conditions: CA-IX ECD 100 nM to 1.23 nM, read-out: Specific binding, Dog. As for the experimental part: (§2) A ProteON GLC chip was activated with sEDS and sNHS prior to immobilizing approximately 4000 RUs of Goat anti-human Fc (Jackson InnumoResearch) via amine (lysine) coupling in 10 mM acetate buffer pH 4.5. This surface was then used to capture c2C7 and c12H8 on different flow cells. Recombinantly-expressed (CHO cells) SEC purified dimeric CA-IX extracellular domain (ECD) from human, mouse, dog and cynomolgus monkey and human CA-XII, were prepared in PBS with 0.02% Polysorbate-20. These dilutions were then flowed over the captured antibodies at 5 different concentrations from 100 nM to 1.23 nM using a flow rate 50 μL/min. […] Kinetic association and dissociation rate constants were determined from non-linear fitting of the observed responses to a 1:1 binding mocel. These rate constants were used to calculate the binding constant KD.

Data set [2] has as its target T4, dimeric CA-IX extracellular domain (ECD) from mouse (Mus musculus, UniProt Q8VHB5).
T4 construct: SEC purified dimeric CA-IX extracellular domain (ECD) from human, mouse, dog and cynomolgus monkey; made in house; host or cells: CHO cells
The experiment in a line: CA-IX species binding by SPR. As to conditions: CA-IX ECD 100 nM to 1.23 nM, read-out: Specific binding, Mouse. As for the experimental part: as §2

Data set [3] has as its target dimeric CA-IX extracellular domain (ECD) from cynomolgus monkey. The experiment in a line: CA-IX species binding by SPR. As to conditions: CA-IX ECD 100 nM to 1.23 nM, read-out: Specific binding, Cynomolgus. On the procedure:
as §2

Data set [4] addresses dimeric CA-IX extracellular domain (ECD) from human (Homo sapiens, UniProt Q16790). The experiment in a line: CA-IX species binding by SPR. As to conditions: CA-IX ECD 100 nM to 1.23 nM, read-out: Specific binding, Human. On the procedure:
as §2, with “This surface was then used to capture c2C7 and c12H8 on different flow cells.” left out, “Polysorbate-20.” for “Polysorbate-20. These dilutions were then flowed over the captured antibodies at 5 different concentrations from 100 nM to 1.23 nM using a flow rate 50 μL/min.”

Data set [5] has as its target T5, human CA-XII extracellular domain (ECD) (Homo sapiens, UniProt O43570).
T5 construct: SPR measurements using 100 nM of human CA-XII extracellular domain (ECD)
Briefly: CA-XII binding by SPR. As to conditions: 100 nM of human CA-XII ECD. As for the experimental part:
as §2

Data set [6] concerns Human-induced pluripotent (iPS) cardiomyocytes. Briefly: Cardiotoxicity in iPS cardiomyocytes (CellTiter-Glo). It is filed as cell-based. As to conditions: 10 nM; 3 and 5 days post-treatment; compared to non-specific human IgG1 negative control and corresponding ADC. On the procedure:
Human-induced pluripotent (iPS) cardiomyocytes were obtained from Cellular Dynamics Inc. iPS cardiomyocytes (iCells) were thawed and cultured according to the manufacturers instructions. Briefly, cells were thawed, resuspended in iCell plating media, seeded in 0.1% gelatin-coated 96-well plates (15,000 cells/well) and maintained in a humidified incubator with 5% CO2 at 37° C. for 4 hours. Cells were then washed to remove debris and the plating media was replaced with iCell Maintenance Media which was then changed every other day during the course of the experiment. […] A non-specific negative control human IgG1 and the corresponding DM1-conjugated ADC were also used for treated the cells using the same protocol. Cell viability was measured 3 and 5 days post-treatment using the CellTiter-Glo Luminescent cell viability Assay (Promega, Madison, Wis.). Briefly, the plates and reagents were equilibrated to room temperature for 30 minutes. A volume of CellTiter-Glo reagent was added to the volume of cell culture medium present in each well and mixed on an orbital shaker for 45 minutes. The luminescence was then recorded using an EnVision plate reader (PerkinElmer Inc.)
(Cellular ATP, detected with luciferase, serves as a proxy for viable cell number.)

T4 sequence (Q8VHB5 32-390 limits assumed): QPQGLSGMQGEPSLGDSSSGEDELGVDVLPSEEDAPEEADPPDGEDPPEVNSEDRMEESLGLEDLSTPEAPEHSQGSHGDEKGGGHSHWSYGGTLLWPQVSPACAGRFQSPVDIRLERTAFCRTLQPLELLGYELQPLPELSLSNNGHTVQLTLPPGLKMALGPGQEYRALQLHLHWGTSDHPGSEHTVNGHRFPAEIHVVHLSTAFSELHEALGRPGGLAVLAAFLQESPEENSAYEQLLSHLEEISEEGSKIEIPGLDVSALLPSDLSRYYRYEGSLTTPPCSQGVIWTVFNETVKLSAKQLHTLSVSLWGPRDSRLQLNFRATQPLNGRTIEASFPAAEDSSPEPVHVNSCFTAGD
T1 sequence (O43570 25-354): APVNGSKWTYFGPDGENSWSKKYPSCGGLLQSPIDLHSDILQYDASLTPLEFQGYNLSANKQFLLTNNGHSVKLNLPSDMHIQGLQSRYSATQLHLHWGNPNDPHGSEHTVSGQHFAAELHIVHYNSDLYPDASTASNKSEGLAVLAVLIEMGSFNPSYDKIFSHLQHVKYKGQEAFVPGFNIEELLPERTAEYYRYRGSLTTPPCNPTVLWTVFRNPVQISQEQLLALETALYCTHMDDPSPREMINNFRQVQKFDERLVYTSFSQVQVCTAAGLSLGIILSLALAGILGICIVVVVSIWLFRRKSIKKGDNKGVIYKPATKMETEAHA
T5 sequence (O43570 25-301 limits assumed): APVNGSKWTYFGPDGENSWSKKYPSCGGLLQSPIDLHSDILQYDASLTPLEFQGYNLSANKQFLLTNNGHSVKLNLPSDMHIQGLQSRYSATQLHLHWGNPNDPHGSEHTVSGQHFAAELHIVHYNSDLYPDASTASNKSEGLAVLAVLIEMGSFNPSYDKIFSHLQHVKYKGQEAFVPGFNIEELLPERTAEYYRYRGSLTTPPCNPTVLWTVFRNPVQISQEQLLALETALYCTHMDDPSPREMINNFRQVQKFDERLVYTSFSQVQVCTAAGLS
T3 sequence (P22748 19-284): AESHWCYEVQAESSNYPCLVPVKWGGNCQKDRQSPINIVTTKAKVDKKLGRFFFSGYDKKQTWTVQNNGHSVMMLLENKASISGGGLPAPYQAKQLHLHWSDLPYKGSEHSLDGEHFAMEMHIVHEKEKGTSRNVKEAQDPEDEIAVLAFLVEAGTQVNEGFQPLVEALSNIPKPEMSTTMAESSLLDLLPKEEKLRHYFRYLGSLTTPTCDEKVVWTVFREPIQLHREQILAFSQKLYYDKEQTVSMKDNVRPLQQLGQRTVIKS
T2 sequence (Q9ULX7 16-337): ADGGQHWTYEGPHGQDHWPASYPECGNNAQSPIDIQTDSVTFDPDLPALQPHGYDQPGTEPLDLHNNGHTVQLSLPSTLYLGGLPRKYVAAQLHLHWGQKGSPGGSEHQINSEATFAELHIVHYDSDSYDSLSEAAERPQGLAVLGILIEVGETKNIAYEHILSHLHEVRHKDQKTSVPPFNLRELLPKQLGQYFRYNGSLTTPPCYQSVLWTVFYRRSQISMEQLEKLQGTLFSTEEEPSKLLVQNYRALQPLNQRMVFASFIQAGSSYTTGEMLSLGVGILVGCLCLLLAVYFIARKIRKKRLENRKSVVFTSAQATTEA

B1: c12H8: chimeric 12H8, human kappa1 light chain and human IgG1 heavy chain; SEQ ID NO:29 and 30 (protein)
light: DVVMTQTPLTLSVTIGQPASISCKSSQSLLDSDGKTYLNWLLQRPGQSPKRLIYLVSKLDSGVPDRFTGSGSGTDFTLKISRVEAEDLGVYYCCQGTHFPWTFGGGTKLEIKRTVAAPSVFIFPPSDEQLKSGTASVVCLLNNFYPREAKVQWKVDNALQSGNSQESVTEQDSKDSTYSLSSTLTLSKADYEKHKVYACEVTHQGLSSPVTKSFNRGEC
heavy: QIQLVQSGPELKKPGETVKISCKASGYTFTNYGMNWVQQAPGKGLKWMGWINTYTGEPTYADDFKGRFAFSLETSASTAYLQINNLKNEDMATYFCARGGIATPTSYWGQGTTLTVSS[letters of human IgG1 constant region omitted]
modifications: Chimeric 12H8 Light Chain; Chimeric 12H8 Heavy chain
For B1, in the data set with rhCA-IX ECD Dimer, the ka is reported as 5.88 × 10^5. In the data set with rhCA-IX ECD Dimer, the kd is given as 5.76 × 10^−4. Moreover, the “binding to rhCA-XII” value with rhCA-XII is recorded as “no binding was detected”. Besides, in the data set with rhCA-XIV, the “binding to rhCA-XIV” value is reported as “no binding was detected”. Besides, the “binding to rhCA-IV” value in the data set with rhCA-IV is given as “no binding was detected”. The Kd in data set [1] was > 20 nM; in data set [2], > 20 nM; in [3] it was < 20 nM; in [4], < 20 nM. Besides, in data set [5], the “binding to human CA-XII ECD” value is reported as “no binding”. Further, the “impact on cell viability” value in data set [6] is “neither c2C7, c12H8 or their corresponding DM1 conjugate ADCs had any significant impact”.
